Experimental data: the supplement of paper PMC4166925
± gives the standard deviation of the averaged measurements. Over roughly 33,000 sequences, “E-score (dimensionless, -0.5 to 0.5)” has its median near -0.046; the highest 2% begin near 0.36. The list shows a part of the results.

test system: T1, SpTbr T-box DNA-binding domain (GST fusion); experiment: PBM E-score of 8-mer (E-score (dimensionless, -0.5 to 0.5)); Tbr is Tbrain of the sea star Patiria miniata (Pm) or the sea urchin Strongylocentrotus purpuratus (Sp); higher = stronger binding preference; most listed sequences are background and not binding sites; settings: the construct has about 5 more residues each side
T1 sequence: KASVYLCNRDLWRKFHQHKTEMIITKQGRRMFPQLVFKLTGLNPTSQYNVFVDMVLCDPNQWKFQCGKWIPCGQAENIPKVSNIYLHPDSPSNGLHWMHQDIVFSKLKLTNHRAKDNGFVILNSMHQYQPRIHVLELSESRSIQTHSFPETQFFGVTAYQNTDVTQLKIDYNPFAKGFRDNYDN
Description: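 Universal protein-binding microarray (Agilent AMADID 016060, 60-bp probes with a 35-bp variable region) incubated with 200 nM GST-fused Strongylocentrotus purpuratus Tbr T-box DNA-binding domain (residues 362-554) in PBS pH 7.5. Scored for every ungapped 8-mer (given with its reverse complement) as E-score (range -0.5 to 0.5; >0.45 counts as bound) and Z-score of median probe intensity. Two replicate arrays (datasets 1 and 2).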
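Also: protein at 200 nM in PBS on universal double-stranded arrays.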

Sequence	PBM E-score of 8-mer
CTAATACC	0.00201 ± 0.056
ATTAGTTG	0.0607 ± 0.0065
GCCTACTA	-0.0435 ± 0.032
ACTAGTCC	-0.2521 ± 0.00028
GGGTAAGA	-0.299 ± 0.018
GCGCAAGC	0.0816 ± 0.064
ACGCTTAA	0.11 ± 0.0092
ACACCAGC	0.311 ± 0.019
TAGACTCA	-0.216 ± 0.027
ACTCGGTC	-0.181 ± 0.035
CACAGCAA	0.0267 ± 0.063
ACTGCTAT	-0.0695 ± 0.034
CGACGTAA	-0.0799 ± 0.063
GTCCCCGA	-0.132 ± 0.0025
CGACTCAA	-0.0279 ± 0.041
ACCGGTAT	-0.0861 ± 0.0031
CGGTAAAC	-0.0651 ± 0.0042
AAGGTGGA	-0.0733 ± 0.085
AATGGCGC	0.105 ± 0.017
ATCCTGAA	-0.0378 ± 0.016
AGACATCG	-0.308 ± 0.038
CGATTACA	0.131 ± 0.02
ATGCCAAA	-0.0506 ± 0.0037
GAAGACAC	0.321 ± 0.033
CCGATGGA	-0.155 ± 0.037

Sequence	PBM E-score of 8-mer
CGTTTAAA	-0.333 ± 0.038
CAGTTTAC	0.0492
AGTTTAGC	-0.0805 ± 0.036
AATGCACG	-0.0753 ± 0.053
GACCTCGC	0.0532 ± 0.0042
AAGTCACG	0.2102 ± 0.0021
ATAATCCC	-0.178 ± 0.052
CAAAATCC	-0.108 ± 0.019
ATAACCAA	-0.172 ± 0.0045
AGCCACAA	0.0237 ± 0.048
TCTAAGCA	0.0691 ± 0.04
AATAGTGG	0.0885 ± 0.06
AAAAATCT	-0.0505 ± 0.023
GCAACCGA	0.156 ± 0.039
GGATGTGA	0.195 ± 0.053
CGGTCGGC	-0.107 ± 0.12
AGAGTTAA	0.138 ± 0.062
GAACCCGC	-0.0688 ± 0.024
AACGAGGA	-0.0678 ± 0.025
GGAATTCC	-0.158 ± 0.041
CGAAGTTC	-0.0813 ± 0.075
AACTTGCC	0.13 ± 0.052
AACCCGTG	0.204 ± 0.009
GAACTCGA	0.194 ± 0.051
CACCAATG	0.179 ± 0.0061

Sequence	PBM E-score of 8-mer
AGAAAAGA	0.126 ± 0.029
AGAGTCGG	-0.0747 ± 0.009
TCTACGCA	-0.0189 ± 0.067
GGTCTTTA	-0.125 ± 0.031
ATGCGAAC	0.154 ± 0.017
ATCGTTAG	-0.0351 ± 0.02
AATCGAGA	-0.0925 ± 0.025
AACCTGCT	-0.00214 ± 0.0044
CCGCGCTC	0.0673 ± 0.066
CATTTACG	-0.124 ± 0.057
GTTTGTCA	0.188 ± 0.045
ATGCCTAC	-0.195 ± 0.028
AGAATTAG	-0.00534 ± 0.013
TGAAGCAA	-0.173 ± 0.011
CCTGACTA	-0.00723 ± 0.035
ATAATCTC	-0.0752 ± 0.092
AAAAGCAA	-0.0506 ± 0.1
ATCCCGAC	0.00396 ± 0.076
ATTGGTAG	-0.026 ± 0.036
GCCGTAGA	-0.288 ± 0.0058
GGTAAGTA	-0.0476 ± 0.043
ACAAGACA	0.0373 ± 0.048
ACCGATAC	-0.129 ± 0.01
AGGGGCAG	-0.208 ± 0.027
CGTAGTAG	-0.00611 ± 0.019

Sequence	PBM E-score of 8-mer
ATTTCGAG	0.0333 ± 0.11
ATACGGAG	0.0541 ± 0.066
AATAGCAA	0.151 ± 0.019
GAATCGCA	0.261 ± 0.0065
CGTAGCGC	0.0273 ± 0.026
GCTTCTTA	0.0778 ± 0.074
ATGCGTTA	0.249 ± 0.023
CTAGTTCC	-0.113 ± 0.021
CTCCAAAC	-0.0591 ± 0.11
CACGTTTA	0.144 ± 0.054
CTCACCTA	0.385 ± 0.014
GGTGTGCA	0.362 ± 0.026
GTGAACCA	0.239 ± 0.015
TACTCCTA	-0.0414 ± 0.052
AGTAGGTC	-0.0701 ± 0.038
AGGTCCCA	0.0282 ± 0.056
CCAGGTGC	0.3516 ± 0.00069
CGGGGGAA	-0.227 ± 0.043
AGTAGGAA	-0.171 ± 0.011
CCGGTCCA	-0.108 ± 0.034
AGCTTAGG	-0.137 ± 0.06
ACCTAGAC	0.109 ± 0.12
CAGGTCCG	-0.0754 ± 0.04
AGAACTGC	-0.0394 ± 0.11
GACAGTTA	0.155 ± 0.021

Sequence	PBM E-score of 8-mer
AGATCACG	0.0187 ± 0.025
TCCGCGAA	0.2876 ± 0.00083
AAATAAAG	-0.189 ± 0.11
TCACTAAA	0.163 ± 0.0075
CGACTAAA	-0.153 ± 0.025
AGCACAGG	-0.143 ± 0.017
ATCACGAA	0.00852 ± 0.034
ACCTCGAT	0.152 ± 0.037
AAGACAGG	-0.117 ± 0.0098
GAGAGTCC	-0.181 ± 0.049
CTTTATGA	0.0331 ± 0.046
AATTGTAG	-0.0995 ± 0.021
CCGCGAAG	0.353 ± 0.0062
AAAAGCGG	-0.254 ± 0.068
CGACGCCA	0.189 ± 0.073
AGTGTCCA	0.0307 ± 0.017
AAACGGAT	-0.0584 ± 0.052
GCCGAATA	-0.017 ± 0.035
GCACTTAA	0.254 ± 0.044
ACCTGACT	-0.00588 ± 0.018
ATTGCTCG	-0.1443 ± 0.00092
CCGTCTAC	-0.101 ± 0.09
CTTTCAAA	-0.203 ± 0.0062
CACGCCTC	0.395 ± 0.032
CCGAGGCA	-0.161 ± 0.046

Sequence	PBM E-score of 8-mer
CCATGCGC	-0.0395 ± 0.1
AATTGGAC	-0.187 ± 0.049
ACGCAGTC	-0.137 ± 0.022
GGCTACGA	-0.142 ± 0.061
AGGACCCA	-0.232 ± 0.078
CATCATCC	-0.166 ± 0.042
AATGTACA	-0.187 ± 0.021
CCTAGTAA	0.0407 ± 0.027
AACTATAG	-0.0665 ± 0.0063
GGTGCACC	-0.171 ± 0.024
CAGAATCA	-0.195 ± 0.0096
CTCGACCA	-0.0139 ± 0.069
GTTCTTAA	-0.157 ± 0.084
CTTTCTGC	0.0223 ± 0.02
CTTAATCC	-0.00895 ± 0.027
CATCGGTA	-0.0619 ± 0.043
GCAGTCCC	-0.0723 ± 0.00049
GGGGTGAA	0.0585 ± 0.016
ATTGGTGG	0.114 ± 0.0032
ACGTACAT	0.0867 ± 0.029
GTCATAGA	-0.157 ± 0.041
CCGTGAAG	0.242 ± 0.0076
AATGATCA	-0.151 ± 0.034
GCATTCGC	0.162 ± 0.056
CTACTTTA	0.0515 ± 0.034

Sequence	PBM E-score of 8-mer
CTCGTGTC	0.128 ± 0.0062
TGAGTCAA	-0.0868 ± 0.06
AGCCAGCA	-0.0748 ± 0.027
AACGGTAC	-0.122 ± 0.029
GCCTCAGC	-0.0272 ± 0.034
AATTATGC	-0.125 ± 0.071
CATCTATA	-0.059 ± 0.018
CCGCCCGG	-0.165 ± 0.034
GAGCAGTA	-0.00784 ± 0.039
AGCGACCA	-0.0754 ± 0.037
CTCTGAAA	-0.2424 ± 0.0021
ATTAAGCC	-0.241 ± 0.051
CGTTAGTC	-0.0488 ± 0.022
ATCTCCCG	-0.13 ± 0.049
ACTAGGAA	-0.203 ± 0.031
CCGCCGAC	0.0818 ± 0.087
GCAAATGC	-0.0842 ± 0.024
ATCGAATC	-0.213 ± 0.026
AATTAGGT	0.0528 ± 0.042
CGGACGTA	-0.258 ± 0.0079
ATGGCTAA	-0.061 ± 0.0095
ATAGCTAA	-0.28 ± 0.0086
AAACGCGG	-0.179 ± 0.033
AAGATTCT	-0.276 ± 0.003
GGATGTAC	-0.201 ± 0.011

Sequence	PBM E-score of 8-mer
GTTCACGA	0.275 ± 0.0011
CTCTACAG	-0.119 ± 0.087
CAGTTCTA	-0.0902 ± 0.016
AATTTAAG	-0.161 ± 0.043
AATTCCAG	-0.131 ± 0.041
CATCCTCA	0.00357 ± 0.061
CAGTGATA	0.0669 ± 0.091
ACATGTCC	-0.159 ± 0.09
AAAAGCTT	-0.0879 ± 0.17
CAGTACAA	-0.122 ± 0.075
GTACGGGA	-0.0385 ± 0.087
AATCTCAC	0.366 ± 0.016
CCATTGGG	-0.0394 ± 0.042
GGCAGTAC	-0.131 ± 0.07
ATTTCAAG	-0.254 ± 0.018
AAGAGAGA	-0.141 ± 0.03
GCCGGTAC	-0.178 ± 0.042
GTATACAA	-0.141 ± 0.037
GCGCATCC	-0.135 ± 0.076
ATACTTGG	-0.22 ± 0.046
GGGGAGTA	-0.283 ± 0.017
AATGGGTG	0.144 ± 0.011
ATCTATGG	-0.1227 ± 0.001
GTGTCAAA	0.444 ± 0.0081
AAAGGCCG	-0.153 ± 0.022

Sequence	PBM E-score of 8-mer
ACGAGACA	-0.13 ± 0.015
ACTGTTCT	0.0285 ± 0.011
CATTAACC	-0.281 ± 0.015
ATCAGTCG	-0.135 ± 0.034
CCTACGTC	-0.0325 ± 0.1
ATGAATTA	-0.045 ± 0.018
AAAACCAA	-0.269 ± 0.13
ATTCACTC	0.115 ± 0.056
CATTCCCG	-0.0702 ± 0.057
GAATACAA	-0.0294 ± 0.012
AGCGAAAT	0.0721 ± 0.062
GCGAAAGA	0.218 ± 0.064
GACAAAAA	0.0756 ± 0.042
CGTTGCGC	0.105 ± 0.018
ATTGGCTC	-0.156 ± 0.02
CGAAGGTC	0.0491 ± 0.018
ATCGGGGG	-0.201 ± 0.039
ACGCCCTC	0.202 ± 0.011
GACGACCA	-0.105 ± 0.061
